# Screen size: about 350,000 compounds; about 31,000 (8.9%) were called active. This list was built around the results that the source calls inconclusive (neither active nor inactive); the mix of calls is not that of the screen. Calls come from the whole dose curve; as a rule, active = well fitted inhibition curve with a large enough effect; inconclusive = small, poorly fitted or top-dose-only effect; inactive = no such curve, though single readings can be large or run the other way. Potencies beside an inconclusive call are fits to weak or partial responses and may not hold up.
# Target: Histone-lysine N-methyltransferase EHMT2 (Homo sapiens) (UniProt Q96KQ7)
# Test: qHTS Assay for Inhibitors of Histone Lysine Methyltransferase G9a; note: nearly all actives have a fitted effect of over 75% in size
# Conditions: G9a H3K9 monomethylation, AlphaScreen, 2 h; activity, negative = inhibition: at 59 µM (top of the series) unless noted
# Method in brief: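 G9a (20 nM) preincubated 15 min RT with compounds, then 500 nM biotinylated H3K9 peptide and 20 uM SAM added; 2 h RT reaction. Monomethyl-H3K9 product detected by AlphaScreen with anti-H3K9me1 antibody, streptavidin donor and anti-rabbit IgG acceptor beads.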
# % is set by controls: 0 for no effect and ±100 for the full control effect; potency is the fitted concentration of half-maximal effect; tags give direction and shape of the fitted curve.
# UniProt Q96KQ7, sequence (Q96KQ7 whole entry, looked up): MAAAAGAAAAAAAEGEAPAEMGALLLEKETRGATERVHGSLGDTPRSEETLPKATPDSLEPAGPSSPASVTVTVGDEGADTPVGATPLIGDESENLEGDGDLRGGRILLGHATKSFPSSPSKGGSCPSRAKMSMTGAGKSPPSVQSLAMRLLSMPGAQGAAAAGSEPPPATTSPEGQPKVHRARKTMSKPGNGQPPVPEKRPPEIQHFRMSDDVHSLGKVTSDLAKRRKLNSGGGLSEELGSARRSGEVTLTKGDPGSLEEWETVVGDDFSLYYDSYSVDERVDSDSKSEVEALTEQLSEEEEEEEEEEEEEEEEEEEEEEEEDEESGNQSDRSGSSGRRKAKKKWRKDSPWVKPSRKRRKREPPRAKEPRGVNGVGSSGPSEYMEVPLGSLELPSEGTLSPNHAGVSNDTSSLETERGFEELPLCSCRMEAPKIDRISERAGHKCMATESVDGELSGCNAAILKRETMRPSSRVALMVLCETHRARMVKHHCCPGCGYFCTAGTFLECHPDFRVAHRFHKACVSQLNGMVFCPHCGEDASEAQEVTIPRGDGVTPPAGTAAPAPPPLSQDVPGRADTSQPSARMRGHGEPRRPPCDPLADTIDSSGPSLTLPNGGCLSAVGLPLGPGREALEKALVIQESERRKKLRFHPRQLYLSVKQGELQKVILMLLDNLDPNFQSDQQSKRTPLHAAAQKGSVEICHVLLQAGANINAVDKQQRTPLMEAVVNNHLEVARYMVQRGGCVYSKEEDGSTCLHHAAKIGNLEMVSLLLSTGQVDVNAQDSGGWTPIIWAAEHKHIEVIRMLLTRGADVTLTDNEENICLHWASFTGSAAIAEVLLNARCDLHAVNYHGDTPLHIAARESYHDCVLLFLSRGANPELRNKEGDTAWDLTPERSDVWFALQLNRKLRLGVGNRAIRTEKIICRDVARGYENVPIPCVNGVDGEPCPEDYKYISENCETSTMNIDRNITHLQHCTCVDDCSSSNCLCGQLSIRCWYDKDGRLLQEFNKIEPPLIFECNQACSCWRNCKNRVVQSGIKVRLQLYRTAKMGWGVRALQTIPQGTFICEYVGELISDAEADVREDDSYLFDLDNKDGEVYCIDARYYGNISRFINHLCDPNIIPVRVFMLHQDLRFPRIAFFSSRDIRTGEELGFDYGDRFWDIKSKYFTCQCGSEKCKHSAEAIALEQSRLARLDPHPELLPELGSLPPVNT
SMILES,Potency,"activity, negative = inhibition"
O=C(c1ccc2c(=O)n(Cc3ccccc3)c(=S)[nH]c2c1)N1CCOCC1,"inconclusive: 56.2 µM [inhibitor, partial curve, poor fit]",–
O=C(COC(=O)c1ccc([N+](=O)[O-])o1)Nc1cccc(S(=O)(=O)N2CCCCC2)c1,"inconclusive: 56.2 µM [inhibitor, partial curve, poor fit]",–
CC(C(=O)N1CCCCC1)N1CCN(S(=O)(=O)c2ccc(Cl)cc2)CC1 (stereo not drawn),"inconclusive: 7.08 µM [inhibitor, single point]",–
Cc1ncoc1C(=O)N1CCCC(C(=O)c2ccc(-c3ccccc3)c(F)c2)C1 (stereo not drawn),"inconclusive: 28.2 µM [inhibitor, single point]",–
CN1CCN(C(=O)c2ccc(CSc3ccc(Cl)cc3)cc2)CC1,"inconclusive: 28.2 µM [inhibitor, single point]",–
O=[N+]([O-])c1ccc(Cl)c(S(=O)(=O)NC2=NCCC2)c1,–,inactive: -40.1% [at 102 µM]
COC(=O)c1c(NC(NC(=O)CC(C)C)C(Cl)(Cl)Cl)sc2c1CCC2 (stereo not drawn),–,inactive: 8.41%
CC(=O)N(C)Cc1ccc(C(=O)CCl)cc1,"inconclusive: 0.631 µM [inhibitor, single point]",–
Cc1nc(Nc2ccccc2C(F)(F)F)sc1C(=O)N(C)C,"inconclusive: 79.4 µM [inhibitor, single point]",–
COc1ccc(C2C(=O)N(C3CCC(C)CC3)CC(=O)N2C2CCCCC2)cc1OC (stereo not drawn),–,inactive: -6.37%
Cn1nc(C(=O)Nc2cccc(S(=O)(=O)N3CCCC3)c2)c2ccccc2c1=O,"inconclusive: 10 µM [inhibitor, partial curve, poor fit]",–
CCOC(=O)CC(NS(=O)(=O)c1ccc2[nH]cc(C(=O)O)c(=O)c2c1)c1ccc(OCC)c(OC)c1 (stereo not drawn),active: 10 µM,–
CCN1CCN(CCOc2ccccc2OCc2ccccc2)CC1,active: 20 µM,–
O=[N+]([O-])c1ccc(N2CCN(S(=O)(=O)c3ccc(Cl)cc3)CC2)cc1NCc1cccnc1,–,inconclusive: -74.6% [inhibitor]
COc1ccccc1NC(=O)C(C)Sc1nnnn1C (stereo not drawn),–,inactive: 16.7%
COc1ccc(N2C(=O)CC(Nc3cccc(C(C)=O)c3)C2=O)cc1OC (stereo not drawn),active: 17.8 µM,–
COc1cc(SC)ccc1C(=O)N1CCN(c2ccccc2OC)CC1,"inconclusive: 79.4 µM [inhibitor, single point]",–
CC(NC(=S)NCCCN1CCOCC1)C1CC2CCC1C2 (stereo not drawn),"inconclusive: 35.5 µM [inhibitor, partial curve, poor fit]",–
COC(=O)c1ccc(N2CCN(CCNC(=O)Nc3ccc(OC)cc3)CC2)cc1,"inconclusive: 89.1 µM [inhibitor, single point]",–
Cc1ccn2c(=O)nc(SCC(=O)NCc3ccc(F)cc3)nc2c1,–,inactive: -25% [at 102 µM]
CC1CCCCN1S(=O)(=O)c1ccc(C(=O)N(CCCN(C)C)c2nc3cc4c(cc3s2)OCO4)cc1 (stereo not drawn),active: 50.1 µM,–
CCC1(c2ccc(F)cc2)NC(=O)N(CC(=O)N2CCN(S(=O)(=O)c3ccc(Cl)cc3)CC2)C1=O (stereo not drawn),"inconclusive: 39.8 µM [inhibitor, partial curve, poor fit]",–

SMILES,Potency,"activity, negative = inhibition"
CSCCC1C(C#N)=C(N)Oc2n[nH]c(-c3cccs3)c21 (stereo not drawn),"inconclusive: 14.1 µM [inhibitor, partial curve, poor fit]",–
CCN1CCc2c(OCC(=O)Nc3ccc(C)cc3)cccc2C1=O,–,inactive: 34.8% [at 102 µM]
Cc1cn2c(=O)c(C(=O)N3CCN(c4ccccc4)CC3)cnc2s1,–,inactive: -41.3% [at 102 µM]
O=C(Nc1ccc(N2CCN(C(=O)c3ccccc3)CC2)cc1)c1cccnc1,"inconclusive: 89.1 µM [inhibitor, single point]",–
Cc1ccc(S(=O)(=O)N2CCC(C(=O)NCCC3=CCCCC3)CC2)c(C)c1,–,inactive: -3.88% [at 0.501 µM]
Cc1cc2nc(SCC(=O)Nc3ccccc3C(=O)O)[nH]c2cc1C,"inconclusive: 50.1 µM [inhibitor, partial curve]",–
CCOC(=O)c1c(-c2cccc([N+](=O)[O-])c2)csc1NC(=O)CCCOc1ccccc1OC,"inconclusive: 17.8 µM [inhibitor, partial curve, poor fit]",–
Oc1c(Cl)cc(Cl)cc1C=Nc1ccc(N2CCOCC2)cc1,"inconclusive: 89.1 µM [inhibitor, single point]",–
COc1ccc(/C=C2/N=C(SC)NC2=O)cc1OC,–,inactive: 4.71% [at 102 µM]
CCOC(=O)N1CCN(C(=O)c2cc(COc3cccc(C(C)=O)c3)on2)CC1,"inconclusive: 89.1 µM [inhibitor, single point]",–
Cn1ccsc1=NC(=O)c1cc(S(=O)(=O)N2CCOCC2)ccc1F,–,inactive: 19.1% [at 2.33 µM]
CCOc1ccc(NC(=O)C2CCCN(c3nn4cc(-c5ccc(OC)cc5)nc4s3)C2)cc1 (stereo not drawn),–,inactive: -0.341%
Cc1ccccc1OCC(=O)NC1=NCCS1,active: 28.2 µM,–
COc1ccc(/C=C/C(=O)NC(=S)Nc2ccccc2)cc1OC,"inconclusive: 79.4 µM [inhibitor, single point]",–
O=C(CN1CC(=O)Oc2ccccc21)OCC(=O)c1ccc(F)cc1,"inconclusive: 50.1 µM [inhibitor, partial curve, poor fit]",–
COCCN(C(=O)CSc1n[nH]c(-c2ccccc2)n1)c1c(N)n(Cc2ccccc2)c(=O)[nH]c1=O,"inconclusive: 89.1 µM [inhibitor, single point]",–
COCCN(CCOC)S(=O)(=O)c1ccc(C(=O)Nc2nnc(CSC)o2)cc1,–,inconclusive: -97.8% [inhibitor] [at 12.7 µM]
CCCCN(C(=O)CSc1nnc(Nc2ccccc2)s1)c1c(N)n(CCC)c(=O)[nH]c1=O,active: 39.8 µM,–
CCOC(=O)N1CCN(S(=O)(=O)c2ccc(C(=O)N(CCN(C)C)c3nc4ccc(Cl)cc4s3)cc2)CC1,"inconclusive: 63.1 µM [inhibitor, single point]",–
O=C(O)c1ccc(NCc2nc3ccccc3n2Cc2ccccc2)cc1,–,inactive: 0.733% [at 102 µM]
COc1ccc(C(=O)Nc2cc(C)on2)cc1S(=O)(=O)N1CC(c2ccccc2)CC1=O (stereo not drawn),"inconclusive: 0.355 µM [inhibitor, full curve, poor fit]",–
